Assay results as given in PubChem BioAssay AID1345083 (National Center for Advancing Translational Sciences (NCATS), 2018).
About 6,200 (6.6%) of roughly 94,000 compounds were called active. The shares of active, inactive and inconclusive entries below differ from those in the screen. Calls follow the shape of the dose curve; as a rule, active = well fitted inhibition curve with a large enough effect; inconclusive = small, poorly fitted or top-dose-only effect; inactive = flat fitted curve, though single readings scatter. A potency beside an inconclusive call is a rough fit, not a confirmed value.

assay: Cytotoxic Profiling in HEK 293 Cell Line of Diverse Libraries Using Quantitative High-Throughput Screening; conditions: HEK 293 viability, ATP luminescence (CellTiter-Glo), 48-72 h; activity change, negative = cytotoxicity: at 115 µM (top of the series) unless noted; series mostly up to 115 µM; also: nearly all actives have a fitted effect of over 60% in size
Outline: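 qHTS cytotoxicity; HEK 293, 250 cells/well; compound pinned; 48 or 72 hr, 37 degree Celsius, 5% CO2, 95% humidity; CellTiter-Glo, 10 min RT; luminescence (ATP).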
% is scaled to controls: 0 for no effect and ±100 for the full control effect; potency is read from the fitted curve at half-maximal effect; tags tell the direction and shape of the fitted curve.

Structure (SMILES)	activity change, negative = cytotoxicity	Potency	outcome
Cc1[nH]c2c(F)cccc2c1CC(=O)NC(c1cnn(C)c1)C1CC(O)C1 (configuration not stated)	inactive: 4.52%	–	–
COc1cccc(-c2cccc(CN3CCCC3C(=O)N(C)C)c2)c1 (configuration not stated)	–	inconclusive: 100 µM [inhibitor, partial curve, poor fit]	–
COc1ccccc1CC(=O)N1CCCc2ncc(C(=O)Nc3ccc(OC)c(OC)c3)cc21	–	inconclusive: 89.1 µM [inhibitor, single point]	–
CC1=C[C@@H](CC#N)[C@H](C(C)C)C[C@H]1CC(=O)N(C)Cc1cccnc1	–	inconclusive: 89.1 µM [inhibitor, partial curve, poor fit]	–
CC(C)c1ccc(CC(=O)N2CCCc3ncc(C(=O)N4CCCC[C@@H]4Cc4ccccc4)cc32)cc1	–	active: 44.7 µM	–
Cc1ccc(C)c(C(=O)N2CCC(Oc3nccnc3N(C)C)C2)c1 (configuration not stated)	–	inconclusive: 56.2 µM [inhibitor, partial curve, poor fit]	–
COc1ccc(CN2CC3(COCC2=O)CN(c2ccc(C(F)(F)F)cn2)C3)cc1F	–	inconclusive: 100 µM [inhibitor, partial curve]	–
Cc1cn2nc(C(=O)NCCc3cccs3)cc2c(N2CCSCC2)n1	–	inconclusive: 50.1 µM [inhibitor, partial curve, poor fit]	–
CCS(=O)(=O)N(C1CC1)C1CCOC2(CCN(C(=O)c3sc(C)nc3C)CC2)C1 (configuration not stated)	–	inconclusive: 89.1 µM [inhibitor, single point]	–
Cc1cc(C)cc(-c2ccc(CN3CCCC3C(=O)NCC3CC3)cc2)c1 (configuration not stated)	–	active: 39.8 µM	–
COc1ccc(Nc2ccnc(N3CCN([S+](=O)([O-])c4ccc(C)cc4)CC3)n2)cc1	inactive: -27.9%	–	–
CCC(NC(=O)c1ccc2nc(-c3ccc(F)cc3)cn2c1)c1cccnc1 (configuration not stated)	–	inconclusive: 50.1 µM [inhibitor, partial curve, poor fit]	–
O=C1NC(=NC2CCCC2)C2(CCN(Cc3ccsc3)CC2)N1c1cc(F)cc(F)c1	inactive: -5.09%	–	–
O=C(c1ccc(Cl)cc1)N1CCOC(CN(C(=O)c2ccc(F)cc2)C2CCCC2)C1 (configuration not stated)	–	active: 44.7 µM	–
CC(C)(C)C1CCC2(CC1)NC(=O)N(CC(=O)NCc1ccc3c(c1)OCO3)C2=O (configuration not stated)	inactive: -9.94%	–	–
O=C(NCC1CC1)c1nc2c(o1)CCN(Cc1cccc(F)c1)CC2	–	inconclusive: 35.5 µM [inhibitor, partial curve, poor fit]	–
CCOc1cccc(CN(CCO)Cc2nccn2-c2ccc(OC)cc2)c1	–	inconclusive: 50.1 µM [inhibitor, partial curve, poor fit]	–
COc1cc(Cl)ccc1C(=O)NC1CCc2nn(CC3CC3)c(=O)n2CC1 (configuration not stated)	–	inconclusive: 56.2 µM [inhibitor, partial curve, poor fit]	–
Cc1oc(C(O)c2cccc(O)c2)nc1C(=O)Nc1ccc(N2CCOCC2)cc1 (configuration not stated)	–	inconclusive: 100 µM [inhibitor, partial curve]	–
O=S(=O)(c1ccccc1)N1CCCC(c2nc(CCOCC3CC3)no2)C1 (configuration not stated)	–	inconclusive: 35.5 µM [inhibitor, partial curve, poor fit]	–
Cc1nn(-c2ccc(C(F)(F)F)cc2)c(C)c1[C@@H]1C=C[C@@H](NC(=O)c2cccnc2)C1	–	inconclusive: 63.1 µM [inhibitor, partial curve, poor fit]	–
O=C(c1ccc(F)cc1)N1CCc2nc(OCC3CC3)ccc2C1	–	inconclusive: 50.1 µM [inhibitor, partial curve, poor fit]	–
Cc1nnc2ccc(N3CCCN(C(=O)c4ccccc4F)CC3)nn12	–	–	inactive

Structure (SMILES)	activity change, negative = cytotoxicity	Potency	outcome
N#Cc1ccc(CN2CCC3(CC2)COCCN3C(=O)OCc2ccccc2)cc1	–	inconclusive: 100 µM [inhibitor, partial curve, poor fit]	–
Cc1cccc(N2CCN(C(=O)C3N(C(C)C)C(=O)C34CCCCC4)CC2)c1 (configuration not stated)	–	inconclusive: 79.4 µM [inhibitor, partial curve, poor fit]	–
Cc1cc(Cn2cc3c4c(cccc42)[C@H](CC(C)C)N[C@H](C(=O)NCc2ccccn2)C3)no1	–	active: 31.6 µM	–
Cc1cn2nc(C(=O)NCC(C)c3ccccc3)cc2c(N2CCSCC2)n1 (configuration not stated)	–	inconclusive: 44.7 µM [inhibitor, partial curve, poor fit]	–
O=C(C1Cn2cccc2C(=O)N1Cc1ccccc1)N1CCOCC1 (configuration not stated)	inactive: -8.46%	–	–
Cc1ccc(CN[C@@H]2CO[C@H](CNC(=O)N3CCOCC3)[C@H]2O)cc1	–	–	inactive [at 172 µM]
COc1ccc(-c2cc(C(=O)N3CCC(c4nc(CCOCC5CC5)no4)C3)[nH]n2)cc1 (configuration not stated)	–	inconclusive: 7.94 µM [inhibitor, partial curve, poor fit]	–
CS(=O)(=O)N1CCC(C2CCN(Cc3ccc[nH]3)C2)CC1 (configuration not stated)	inactive: -7.21%	–	–
Cc1noc(C)c1S(=O)(=O)N1CCCC(CCc2ccc(F)c(F)c2)C1 (configuration not stated)	–	active: 44.7 µM	–
CN(C)Cc1nnc(C2CC(NC(=O)c3cn4cccnc4n3)C2)n1C (configuration not stated)	–	inconclusive: 20 µM [inhibitor, full curve, poor fit]	–
O=C(NC1CCCc2ccccc21)C1CN(C2CCCCC2)C(=O)N1 (configuration not stated)	–	inconclusive: 50.1 µM [inhibitor, full curve]	–
COc1ccc2c(c1)CN(CC1CC1)C(=O)CCN2C[C@@H](O)COCc1ccccc1	inactive: -23.7%	–	–
COc1ccc(-c2nc(N3CCOCC3)cc3c2CN(Cc2ccccc2)C3=O)cc1	–	inconclusive: 79.4 µM [inhibitor, partial curve]	–
CN1CCCN(C(=O)c2ccccc2OC(F)(F)F)c2ccccc21	–	inconclusive: 50.1 µM [inhibitor, partial curve, poor fit]	–
O=[S+]([O-])(Nc1ccccc1)c1ccc2c(c1)OCCN(Cc1cncnc1)C2	–	inconclusive: 63.1 µM [inhibitor, full curve]	–
COc1ccc(C(=O)NC2CCN(c3ccc4nnc(C5CC5)n4n3)C2)cc1 (configuration not stated)	inactive: -19%	–	–
COC(=O)CNC(=O)c1cc(-c2cnccc2Cl)c2cccn2n1	inactive: 1.73%	–	–
CC(=O)N1CCN(C(=O)c2ccc3nc(-c4ccnc(Cl)c4)oc3c2)CC1	inactive: -9.35% [at 172 µM]	–	–
O=C(c1ccccc1Cl)N1CCN(c2ccc3nnc(C4CC4)n3n2)CC1	inactive: -2.27%	–	–
O=C(NCc1ccccc1)c1cn(C2CN(C(=O)NCc3ccccc3)C2)nn1	–	inconclusive: 50.1 µM [inhibitor, partial curve, poor fit]	–
COCC(=O)N1CCC(C(=O)N2CCC3(CC2)CC(=O)Nc2ccccc2O3)CC1	–	–	inactive
COCc1ccc(C(=O)N2CC[C@@H](NC(=O)c3cnccn3)[C@H](O)C2)o1	inactive: -7.39%	–	–
Cc1ccc(CN2CCc3oc(C)c(C(=O)NCCCN4CCN(C)CC4)c3C2)cc1	–	inconclusive: 70.8 µM [inhibitor, partial curve, poor fit]	–

Structure (SMILES)	activity change, negative = cytotoxicity	Potency	outcome
Cc1ccccc1-c1noc(CCC(=O)N2CCC3(CCCNC3)C2)n1 (configuration not stated)	–	inconclusive: 100 µM [inhibitor, partial curve, poor fit]	–
O=C(c1ccc(Cl)cc1)N1CC2(CCN(CC3CC3)C2)OCc2ccccc21 (configuration not stated)	–	inconclusive: 89.1 µM [inhibitor, single point]	–
COC1CCOC2(CCN(C(=O)Cc3ccccc3)CC2)C1 (configuration not stated)	inactive: -1.55%	–	–
CCN(CCn1cccn1)Cc1ccccc1OCC(O)CN1CCCCC1 (configuration not stated)	–	inconclusive: 100 µM [inhibitor, single point]	–
O=C(Nc1cccc(Cl)c1)C1CCc2sc(C(=O)N3CCCC3)cc2C1 (configuration not stated)	–	active: 39.8 µM	–
Cc1ccc(OCc2nc(C3CCN(C(=O)Cc4cccc(F)c4)CC3)no2)cc1	–	inconclusive: 39.8 µM [inhibitor, partial curve, poor fit]	–
O=C(NC1CCc2n[nH]c(=O)n2CC1)c1ccc2ccccc2n1 (configuration not stated)	–	–	inactive
Cc1cccc(-c2ocnc2C(=O)N2CCCCCCNC(=O)[C@@H]3CCC[C@@H]32)c1	inactive: -1.45%	–	–
CCC(CC)NC(=O)C1CCN(c2cn[nH]c(=O)c2)C1 (configuration not stated)	–	–	inactive
O=C(NC1CCN(C(=O)c2ccc(-c3cncnc3)cc2)CC1)c1ccc(C(F)(F)F)cc1	–	inconclusive: 56.2 µM [inhibitor, partial curve, poor fit]	–
CC(=O)c1ccc(NC(=O)N2Cc3[nH]cnc3C[C@H]2c2nc(-c3ccc(F)cc3)no2)cc1	inactive: -1.4%	–	–
C[C@]1(NC(=O)c2cnccn2)OC[C@@H]2CC[C@H](C(=O)NCc3ccc(OC(F)(F)F)cc3)N2C1=O	inactive: -3.93%	–	–
O=C(Nc1cccc(C(F)(F)F)c1)O[C@@H]1CO[C@H]2[C@@H]1OC[C@@H]2Nc1nccc(-c2ccc3c(c2)OCO3)n1	–	active: 50.1 µM	–
Cc1ccc(S(=O)(=O)N2CCC(C(NC(=O)c3ccccc3)C(=O)NCC(C)C)CC2)cc1 (configuration not stated)	–	inconclusive: 50.1 µM [inhibitor, partial curve, poor fit]	–
O=C(O)[C@H]1C[C@@H](C(=O)NCc2ccncc2)CN(C(=O)CC2CCCC2)C1	inactive: -4.95%	–	–
CC(Cn1ccnc1-c1cc2n(n1)CCCNC2)N1CCN(C)CC1 (configuration not stated)	–	–	inactive
Cc1ccc(Nc2ccnc(N3CCC(NC(=O)C(C)(C)C)CC3)n2)cc1	–	inconclusive: 44.7 µM [inhibitor, partial curve, poor fit]	–
C=CCOCC(O)CN1CCC(=O)N(Cc2ccccc2)Cc2c1ccc(OC)c2OCC=C (configuration not stated)	–	inconclusive: 25.1 µM [inhibitor, full curve]	–
Cn1c(CNC(=O)C2CC(=O)N(c3n[nH]c4ccccc34)C2)nc2ccccc21 (configuration not stated)	inactive: -12.9%	–	–
CCCNC(=O)c1cccc2c1CCN2S(=O)(=O)c1ccc(C)cc1	–	inconclusive: 44.7 µM [inhibitor, partial curve]	–
Cc1cccc(C)c1-c1nnc2ccc(C(=O)NCc3cccs3)cn12	–	inconclusive: 50.1 µM [inhibitor, partial curve, poor fit]	–
